Not every detail of the peptide structures is certain; ends, links or a residue may be inferred. Some entries repeat one wording, which the source may state once for all of them. Where a SMILES comes first, the peptide text is derived from it. Bridges are numbered along the chain shown (N, C = ends). [ ]: non-standard residue; d: D form. The star is where a group is joined. Phe(4-Cl) = N[C@@H](Cc1ccc(Cl)cc1)C(=O)O; Agmatine = N=C(N)NCCCCN*; Nle = CCCC[C@H](N)C(=O)O; Abu = CC[C@H](N)C(=O)O; PhAc = O=C(Cc1ccccc1)*
Columns and labels:
[1] = test system: GH release stimulated by hGH-RH(1-29)NH2; test: In vivo inhibition of hGH-RH(1-29)NH2-stimulated serum GH in anesthetized rats; design: species or system Sprague-Dawley rats; details: for Inhibition % / Serum GH Levels: 80 μg/kg i.v.; for inhibition of GH release stimulated by hGH-RH(1-29)NH2 compared with the standard antagonist: in vivo, rats
Procedure: In Vivo Tests. Adult male Sprague-Dawley rats are anesthetized with pentobarbital (6 mg/100 g b.w., i.p.). Blood samples are taken from the jugular vein 30 min after the injection of pentobarbital. One group of 7 animals receives hGH-RH(1-29)NH2 as control. […] Blood samples are taken from the jugular vein 5 and 15 min after the injection of antagonists. GH levels are measured by RIA. Potencies of the antagonists are calculated by the factorial analysis of Bliss and Marks with 95% confidence limits and are based on the doses of 100 and 400 μg/kg b.w. of the Standard antagonist and 20 and 80 μg/kg b.w. of the antagonists tested. Statistical significance was assessed by Duncan's new multiple range test.

[2] = test system: SW-1990 human pancreatic cancers; test: SW 1990 human pancreatic cancers in nude mice; format: in vivo; details: Peptide #8 at 10 μg/day
Procedure: Small piees of an SW-1990 rumor growing in a nude mouse were transplated s.c. into the right flanks of 60 nu/nu male nude mice. Ten days after transplantation, 40 mice with well growing tumors were groupled into 4 groups with equal average tumor volume (16 mm^3) in each group. Treatment started 13 days after transplantation and was continuted for 44 days. The tumors were measured and volume was calculated weekly. Tumor volume changes are shown in Table V. On day 45 of treatment the mice were sacraficed under Metofane anesthesia by exsanguination from abdominal aorta. Blood was collected, tumor and organ weights were determined.

[3] = test system: GH release induced by 1 nM hGH-RH(1-29)NH2 in superfused rat pituitary cells; test: Inhibition of hGH-RH(1-29)NH2-induced GH release in superfused rat pituitary system; format: cell-based; details: for Inhibition of GH release (%) 0 min: 0 min response; for Inhibition of GH release (%) 30 min: 30 min response; for Inhibition of GH release (%) 60 min: 60 min response; for Inhibition of GH release (%) 90 min: 90 min response; for Inhibition of GH release (%) 120 min: 120 min response
[4] = molecular target: T1, rat pituitary GH-RH receptors (Rattus norvegicus, UniProt Q02644); test: GH-RH radioreceptor binding assay, competition with labelled [His1,Nle27]hGH-RH(1-32)NH2; details: relative to Standard antagonist (=1)
T1 construct: from tissue; host or cells: anterior pituitary of male Sprague-Dawley rats, crude membranes
T1 sequence (Q02644 23-464): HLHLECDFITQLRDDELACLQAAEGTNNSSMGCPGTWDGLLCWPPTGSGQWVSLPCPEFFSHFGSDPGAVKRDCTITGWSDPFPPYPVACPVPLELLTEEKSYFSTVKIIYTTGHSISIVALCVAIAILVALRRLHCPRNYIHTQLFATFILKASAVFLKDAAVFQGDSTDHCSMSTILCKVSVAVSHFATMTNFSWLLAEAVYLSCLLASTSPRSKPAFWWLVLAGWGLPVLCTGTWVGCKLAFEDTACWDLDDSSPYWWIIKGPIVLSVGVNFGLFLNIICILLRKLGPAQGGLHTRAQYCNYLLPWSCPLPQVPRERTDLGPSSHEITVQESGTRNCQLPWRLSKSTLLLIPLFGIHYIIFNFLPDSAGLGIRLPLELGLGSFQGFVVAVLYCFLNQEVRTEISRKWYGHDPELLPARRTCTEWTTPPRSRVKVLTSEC
Procedure: GH-RH Binding Assay. A sensitive radioreceptor binding assay was developed to determine the binding characteristics of the antagonists of GH-RH (G. Halmos, A. V. Schally et al., Receptor 3, 87-97, 1993), hereby incorporated by reference. The assay is based on binding of labelled [His^1, Nle^27 ]hGH-RH(1-32)NH2 to rat anterior pituitary membrane homogenates. Iodinated derivatives of [His^1, Nle^27 ]hGH-RH(1-32)NH2 are prepared by the chloramine-T method (F. C. Greenwood et al., Biochemistry 89:114-123, 1963), hereby incorporated by reference. Pituitaries from male Sprague-Dawley rats (250-300 g) are used to prepare crude membranes. For saturation binding analyses, membrane homogenates are incubated with at least 6 concentrations of [His^1,125I-Tyr^10,Nle^27 ]hGH-RH(1-32)NH2, ranging from 0.005 to 0.35 nM in the presence or absence of excess unlabelled peptide (1 μM).
The pellet is counted for radioactivity in a γ-counter. The affinities of the antagonist peptides tested to rat pituitary GH-RH receptors are determined in competitive binding experiments. The final binding affinities are estimated by Ki (dissociation constant of the inhibitor-receptor complex) and are determined by the Ligand PC computer program of Munson and Rodbard as modified by McPherson. Relative affinities compared to [Ac-Tyr^1, D-Arg^2 ]hGH-RH(1-29)NH2, the Standard antagonist, are calculated as the ratio of Ki of the tested GH-RH antagonist to the Ki of the Standard antagonist.

[5] = 2 min prior to GH-RH(1-29)NH2 3 μg/kg
[6] = 15 min prior to GH-RH(1-29)NH2 3 μg/kg
[7] = 30 min prior to GH-RH(1-29)NH2 3 μg/kg
[8] = 60 min prior to GH-RH(1-29)NH2 3 μg/kg

Row | SMILES | Inhibition % [1, 5] | Serum GH Levels [1, 5] | Inhibition % [1, 6] | Serum GH Levels [1, 6] | inhibition of GH release stimulated by hGH-RH(1-29)NH2 compared with the standard antagonist [1] | Inhibition of GH release (%) 0 min ([3]; 30 nM peptide) | Inhibition of GH release (%) 30 min ([3]; 30 nM peptide) | Inhibition of GH release (%) 60 min ([3]; 30 nM peptide) | Inhibition of GH release (%) 90 min ([3]; 30 nM peptide) | relative affinities (R.A.) [4] | further results
1 | CCCC[C@H](NC(=O)[C@@H](NC(=O)[C@H](CC(=O)O)NC(=O)[C@H](CCC(N)=O)NC(=O)[C@H](CC(C)C)NC(=O)[C@H](CC(C)C)NC(=O)[C@H](CCCCN)NC(=O)[C@H](CCCNC(=N)N)NC(=O)[C@H](C)NC(=O)[C@H](CO)NC(=O)[C@H](CC(C)C)NC(=O)[C@H](CCC(N)=O)NC(=O)[C@H](CC)NC(=O)[C@H](CC(C)C)NC(=O)[C@@H](NC(=O)[C@H](CCCCN)NC(=O)[C@H](CCCNC(=N)N)NC(=O)[C@H](Cc1ccc(O)cc1)NC(=O)[C@H](CO)NC(=O)[C@H](CC(N)=O)NC(=O)[C@@H](NC(=O)[C@H](Cc1ccc(Cl)cc1)NC(=O)[C@@H](NC(=O)[C@H](C)NC(=O)[C@H](CC(=O)O)NC(=O)[C@@H](CCCNC(=N)N)NC(=O)[C@H](Cc1ccc(O)cc1)NC(=O)Cc1ccccc1)[C@@H](C)CC)[C@@H](C)O)C(C)C)[C@@H](C)CC)C(=O)N[C@@H](CO)C(=O)NCCCCNC(=N)N [Peptide 8, [PhAc^0,D-Arg^2,Phe(pCl)^6,Abu^15,Nle^27]hGH-RH(1-28)Agm] (PhAc-Y[dR]DAI[Phe(4-Cl)]TNSYRKVL[Abu]QLSARKLLQDI[Nle]S-Agmatine) | 75% | 177.13 ± 31.75 ng/mL | 74% | 183.91 ± 26.19 ng/mL | significant greater and longer-lasting inhibition | 94.5% | 90.0% | 71.5% | 65.0% | 35.10 | Inhibition % [1, 7]: 22%; Serum GH Levels [1, 7]: 567.46 ± 50.70 ng/mL; Inhibition % [1, 8]: 20%; Serum GH Levels [1, 8]: 582.41 ± 70.18 ng/mL; inhibition of hGH-RH(1-29)NH2-induced GH-release compared with MZ-4-71 ([1]; in vivo experiments): to greater extent than MZ-4-71; effect on growth of SW-1990 cancers (volume and weight data) [2]: significant inhibition of growth; Inhibition of GH release (%) 0 min ([3]; 3 nM peptide): 78.8%; Inhibition of GH release (%) 30 min ([3]; 3 nM peptide): 73.3%; Inhibition of GH release (%) 60 min ([3]; 3 nM peptide): 65.9%; Inhibition of GH release (%) 90 min ([3]; 3 nM peptide): 54.9%; Inhibition of GH release (%) 0 min ([3]; 10 nM peptide): 88.8%; Inhibition of GH release (%) 30 min ([3]; 10 nM peptide): 83.5%; Inhibition of GH release (%) 60 min ([3]; 10 nM peptide): 64.9%; Inhibition of GH release (%) 90 min ([3]; 10 nM peptide): 51.7%; Inhibition of GH release (%) 120 min ([3]; 10 nM peptide): 42.3%; Inhibition of GH release (%) 120 min ([3]; 30 nM peptide): 55.6%
2 | CCCC[C@H](NC(=O)[C@@H](NC(=O)[C@H](CC(=O)O)NC(=O)[C@H](CCC(N)=O)NC(=O)[C@H](CC(C)C)NC(=O)[C@H](CC(C)C)NC(=O)[C@@H]1CCCCNC(=O)CC[C@H](NC(=O)[C@H](CCC(N)=O)NC(=O)[C@H](C)NC(=O)[C@H](CC(C)C)NC(=O)[C@@H](NC(=O)[C@H](CCCCN)NC(=O)[C@H](CCCNC(=N)N)NC(=O)[C@H](Cc2ccc(O)cc2)NC(=O)[C@H](CO)NC(=O)[C@H](CO)NC(=O)[C@@H](NC(=O)[C@H](Cc2ccc(Cl)cc2)NC(=O)[C@@H](NC(=O)[C@H](C)NC(=O)[C@H](CC(=O)O)NC(=O)[C@@H](CCCNC(=N)N)NC(=O)[C@H](Cc2ccc(O)cc2)NC(=O)Cc2ccccc2)[C@@H](C)CC)[C@@H](C)O)C(C)C)C(=O)N[C@@H](CO)C(=O)N[C@@H](C)C(=O)N[C@@H](CCCNC(=N)N)C(=O)N1)[C@@H](C)CC)C(=O)N[C@@H](CO)C(=O)N[C@@H](CCCNC(=N)N)C(N)=O [Peptide 18, cyclo^17,21 [PhAc^0,D-Arg^2,Phe(pCl)^6,Ser^8,Ala^15,Glu^17,Nle^27]hGH-RH(1-29)NH2] (PhAc-Y[dR]DAI[Phe(4-Cl)]TSSYRKVLAQESARKLLQDI[Nle]SR-NH2; lactam 17-21) | 47% | 370.31 ± 48.26 ng/mL | N.S. | 564.74 ± 76.99 ng/mL | significant greater and longer-lasting inhibition | 96.8% | 79.4% | 68.3% | 47.1% | 21.19 | 
